Results reported in PMC4336329 (PLoS ONE, 2015).
About 2,200 (0.71%) of roughly 310,000 compounds showed an effect of 50% or more. The effect is printed as a negative number. The list shows a part of the results.

biological target: human ether-à-go-go-related gene (hERG) potassium channel (human, UniProt Q12809); assay: primary screen, population patch clamp on CHO cells stably expressing hERG
Sequence (Q12809 whole entry, looked up): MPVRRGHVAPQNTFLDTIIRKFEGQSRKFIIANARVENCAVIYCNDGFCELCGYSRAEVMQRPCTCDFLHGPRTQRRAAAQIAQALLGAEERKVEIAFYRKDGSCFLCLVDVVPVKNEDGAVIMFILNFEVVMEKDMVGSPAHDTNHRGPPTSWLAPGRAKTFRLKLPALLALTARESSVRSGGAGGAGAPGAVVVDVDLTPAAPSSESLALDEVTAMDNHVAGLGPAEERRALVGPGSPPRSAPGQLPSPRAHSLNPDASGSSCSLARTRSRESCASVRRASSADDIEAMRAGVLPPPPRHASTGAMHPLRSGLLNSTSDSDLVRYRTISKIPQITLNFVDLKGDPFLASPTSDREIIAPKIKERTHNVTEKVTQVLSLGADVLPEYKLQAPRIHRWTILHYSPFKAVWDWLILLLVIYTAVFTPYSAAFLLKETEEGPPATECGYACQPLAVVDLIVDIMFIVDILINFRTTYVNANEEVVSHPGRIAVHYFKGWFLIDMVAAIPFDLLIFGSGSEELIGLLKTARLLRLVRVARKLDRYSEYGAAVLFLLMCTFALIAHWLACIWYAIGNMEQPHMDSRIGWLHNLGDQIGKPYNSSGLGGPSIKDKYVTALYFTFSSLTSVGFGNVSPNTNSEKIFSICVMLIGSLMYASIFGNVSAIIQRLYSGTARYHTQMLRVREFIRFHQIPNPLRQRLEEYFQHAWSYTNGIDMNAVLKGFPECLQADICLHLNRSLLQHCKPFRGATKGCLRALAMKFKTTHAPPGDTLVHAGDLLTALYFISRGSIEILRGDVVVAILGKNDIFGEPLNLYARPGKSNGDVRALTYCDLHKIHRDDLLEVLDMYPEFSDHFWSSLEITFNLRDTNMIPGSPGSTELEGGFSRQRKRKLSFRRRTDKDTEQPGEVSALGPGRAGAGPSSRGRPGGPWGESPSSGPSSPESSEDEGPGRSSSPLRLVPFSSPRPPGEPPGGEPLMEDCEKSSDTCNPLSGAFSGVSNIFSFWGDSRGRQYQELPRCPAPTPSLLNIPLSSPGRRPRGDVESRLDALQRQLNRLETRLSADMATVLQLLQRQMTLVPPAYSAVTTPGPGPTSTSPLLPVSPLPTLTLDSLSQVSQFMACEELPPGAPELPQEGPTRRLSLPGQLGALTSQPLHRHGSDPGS

| SMILES | hERG current change (%, negative = inhibition) at 1uM [%] |
| --- | --- |
| COc1cc2c(cc1OC)C(c1cccc([N+](=O)[O-])c1)N(C(=O)c1ccc(F)cc1)CC2 (centres unmarked) | 9.92 |
| COC(=O)Cc1ccc(NC(=O)c2cccs2)cc1 | 12.6 |
| Cc1ccccc1OCC(=O)OCC(=O)Nc1cc(C(F)(F)F)ccc1N1CCOCC1 | 18.4 |
| O=[N+]([O-])c1ccc(-c2csc(N/N=C/c3cccnc3)n2)cc1 | 23.3 |
| COc1ccc(C2=NOC(C(=O)Nc3cc(C)nn3-c3ccccc3)C2)cc1OC (centres unmarked) | -2.85 |
| COc1ccccc1-c1coc2c(CN3CCCC(C)C3)c(O)ccc2c1=O (centres unmarked) | 8 |
| CC1(C)OC(C(N)=O)C(C(N)=O)O1 (centres unmarked) | -7.88 |
| CCN(CC)S(=O)(=O)c1cccc(C(=O)Nc2cc(C)cc(C)c2)c1 | 17.1 |
| COc1ccc(OCc2cc(=O)[nH]c3ccccc23)cc1 | 7.59 |
| CC(C)(C)c1nnc(NC(=O)c2ccc(Cl)nc2)s1 | -2.3 |
| COc1ccc(O)c(CN2CCCC(C(=O)Nc3cccc(-n4cccn4)c3)C2)c1 (centres unmarked) | 5.32 |
| CC1CCCCN1S(=O)(=O)c1ccc2c(c1)CCN2C(=O)C1CCC1 (centres unmarked) | 6.45 |
| O=C1c2ccccc2C(=O)N1CCn1nc(Cl)nc1Cl | 3.34 |
| CC(C)CCCCCCNC(=S)Nc1ccc(S(=O)(=O)N2CCOCC2)cc1 | 12.8 |
| O=C(CN1C(=O)c2ccccc2C1=O)Nc1nc(-c2cccc([N+](=O)[O-])c2)cs1 | 5.08 |
| Nc1nnc(SCC(=O)Nc2ccc(Cl)c(C(=O)O)c2)s1 | 16.6 |
| Cc1ccccc1CSc1nnc(-c2ccccc2)c(=O)[nH]1 | 8.62 |
| COc1ccc(-c2c(C(C)=O)c(C)nc3sc4c(=O)[nH]nnc4c23)cc1 | 9.43 |
| Cc1cccc(-n2cc(C#N)c(=O)[nH]c2=O)n1 | 15.8 |
| COC(=O)c1cn(C(=O)c2cc(OC)cc(OC)c2)c2ccccc12 | 12.7 |
| COCCn1c(=O)[nH]c2cc(C(=O)NCC3CCCO3)ccc2c1=O (centres unmarked) | 2.65 |
| O=c1c2c3c(sc2nc(NCCOCCO)n1Cc1ccco1)CCCCC3 | 2.13 |

| SMILES | hERG current change (%, negative = inhibition) at 1uM [%] |
| --- | --- |
| Cc1ccc(NC(=O)C(C)N=C2NS(=O)(=O)c3ccccc32)cc1F (centres unmarked) | 12.1 |
| O=C(Nc1ccccc1)Nc1cccn(Cc2c(F)cccc2Cl)c1=O | 15.7 |
| Cc1nc(NC(=O)CSc2ccc(-c3nc4ccccc4[nH]3)cn2)sc1C | 0.253 |
| NC(=O)c1ccc(NC(=O)COC(=O)CCC(=O)c2ccc(Cl)cc2)cc1 | 10.4 |
| COc1ccc2c(CC(=O)N(C)CC3COc4ccccc4O3)coc2c1 (centres unmarked) | 18.4 |
| C=CCSc1nc(=O)n2cccc(C)c2n1 | -14.7 |
| O=C(OCC(=O)N1CCN(C(=O)c2ccco2)CC1)c1ccccc1O | 4.06 |
| NC(=O)CN(c1ccc(Oc2ccccc2)cc1)S(=O)(=O)c1ccccc1 | 8.67 |
| Cc1ccc(NC(=O)CN(C)C(=O)CN2C(=O)NC(C)(c3ccccc3)C2=O)cc1 (centres unmarked) | 4.41 |
| COC(=O)[C@@H]1[C@H]2C[C@H]3c4[nH]c5ccccc5c4CCN3C[C@@H]2CC[C@@H]1O.Cl | 4.59 |
| CCOC(=O)c1ccc(NC(=S)NC(=O)C2CCCC2)cc1 | 8.99 |
| CCN(CC)S(=O)(=O)c1ccc2c(c1)N(CC(=O)NCCc1ccc(S(N)(=O)=O)cc1)C(=O)CO2 | -2.95 |
| CCOc1ccc2[nH]c3c(=O)n(CCc4ccc(OC)cc4)cnc3c2c1 | 1.85 |
| CCN(CC)c1ccc(NC(=O)c2ccc3c(c2)OCO3)c(C)c1 | 15.9 |
| CCC(=O)Nc1ccc(NC(=S)Nc2ccccc2)cc1 | 7.18 |
| COc1cc([N+](=O)[O-])ccc1NC(=O)Nc1nc2c(s1)CCCC2 | 11.2 |
| O=C(NCc1ccco1)c1cc(-c2cccs2)on1 | -1.08 |
| CCCN(CCC)S(=O)(=O)c1ccc(C(=O)NNc2nc(-c3ccccc3)c3cc(Br)ccc3n2)cc1 | -0.278 |
| Cc1cc(C)nc(SCC(=O)NCC2COc3ccccc3O2)n1 (centres unmarked) | 7.28 |
| CCOC(=O)c1ccc(CNC(=O)CSc2nc(NC(=O)c3ccccc3)c3c(C)c(C)oc3n2)cc1 | 3.94 |
| O=C(Nc1ccc(Cl)cc1)Nc1cccc(C(=O)O)c1 | 7.61 |
| Cc1onc(-c2ccccc2)c1C(=O)NCc1ccccn1 | 9.42 |

| SMILES | hERG current change (%, negative = inhibition) at 1uM [%] |
| --- | --- |
| O=C(Nc1ccc2c(c1)OCCO2)c1ccc(Cl)cc1Cl | 10.9 |
| CCCc1nnc(NC(=O)c2cccc(OC)c2)s1 | -16.3 |
| CCN(CC)C(=O)CN(c1ccc(F)c(Cl)c1)S(C)(=O)=O | 8.09 |
| CCC(Sc1ncnc2c1c(-c1ccccc1)cn2-c1ccc(OC)cc1)C(=O)OC (centres unmarked) | 6.88 |
| C/C=C\C(=O)Nc1cccc(C2=NOC3(C2)C[C@@H](C(N)=O)N(C(=O)c2ccc(OC)cc2)C3)c1 (some centres unmarked) | 0.602 |
| N/C(=N\O)c1ccc(Oc2ccccc2Cl)c([N+](=O)[O-])c1 | 4.65 |
| COc1ccccc1NC(=O)Nc1ccnn1Cc1cccs1 | 4.91 |
| COC(=O)c1cc(S(=O)(=O)NCCN2CCN(c3ccccc3F)CC2)c[nH]1 | 19.6 |
| COc1nn(CC(=O)N2N=C(C(F)F)CC2(O)C(F)F)cc1[N+](=O)[O-] (centres unmarked) | -13.7 |
| O=c1c(Cl)c(O)c2cccc3c4ccccc4n1c23 | 12.4 |
| COc1cc(OC)cc(C(=O)Nc2ccc([N+](=O)[O-])cn2)c1 | 3.11 |
| CCCCC(CC)C(=O)Nc1ccc(C)c(O)c1 (centres unmarked) | 27.5 |
| Cc1ccn2c(NCc3ccc4c(c3)OCO4)c(-c3ccc(O)cc3)nc2c1 | 4.84 |
| O=C(CCn1c(=S)oc2ccccc21)Nc1ccccc1F | -5.62 |
| O=c1c2ccccc2nc(-c2ccco2)n1CCCn1ccnc1 | -29.7 |
| NC(=O)CCn1ccc2ccccc21 | 10.4 |
| CCn1c2ccccc2c2cc(NC(=O)C(C)OC(=O)c3ccc(NC(=O)CC#N)cc3)ccc21 (centres unmarked) | 19.4 |
| CC(=O)Oc1cc2c(C(=O)NCCN3CCOCC3)c(C)oc2c2ccccc12 | -6.5 |
| N#Cc1c(Cl)nc(-c2cccnc2)nc1-c1ccccc1 | 11.4 |
| CCOC(=O)CCCNS(=O)(=O)c1c(C)ccc2nsnc12 | 1.17 |
| O=C1CCc2cc(NS(=O)(=O)c3ccc(F)cc3)cc3c2N1CC3 | -0.223 |
| CC(C)(C)OC(=O)N1CCC[C@H]1C(=O)Nc1ccc(S(=O)(=O)C(F)F)cc1 | 14.8 |

| SMILES | hERG current change (%, negative = inhibition) at 1uM [%] |
| --- | --- |
| Cc1cccc(C(=O)c2cnc3ccccc3c2-c2ccccc2)c1 | 9.09 |
| CN(CC(=O)Nc1ccc(Cl)c(C(F)(F)F)c1)C(=O)Cn1cc([N+](=O)[O-])ccc1=O | -7.11 |
| CC(=O)Nc1ccc(S(=O)(=O)N(C)CC(=O)OCC(=O)NC(C)C23CC4CC(CC(C4)C2)C3)cc1.CN(C)C=O (centres unmarked) | 18.3 |
| Cc1cc(-c2nnc(SCC(=O)N3C(C)CCCC3C)o2)no1 (centres unmarked) | 15.6 |
| O=C(CN1C2CCC1CC(NC(=O)Nc1ccccc1)C2)NCc1ccco1 (centres unmarked) | -10.7 |
| COc1cc(S(=O)(=O)n2ccnc2)ccc1Br | 5.84 |
| C1=C(c2ccccc2)CCN(c2nc3ccccc3n3cnnc23)C1 | 11.5 |
| Cc1cccc2cc(CN(Cc3ccco3)C(=O)NC3CCCCC3)c(=O)[nH]c12 | -8.16 |
| O=C1NC(=O)N(Cc2cccs2)C(=O)/C1=C/c1ccc(N2CCOCC2)cc1 | 10.9 |
| O=C(NC1(C(F)(F)F)Oc2ccccc2O1)N1CCC2(CC1)OCCO2 | -1.45 |
| CC(C)(C)OC(=O)CNC(=O)c1[nH]cnc1C(=O)NCC(=O)OCc1ccccc1 | 1.86 |
| O=C(Cn1cc(S(=O)(=O)N2CCN(c3ccccc3F)CC2)c2ccccc2c1=O)NCCCN1CCCCCC1 | 10.5 |
| CCOc1ccccc1NC(=O)C(NCC1(N2CCCCC2)CCCCC1)c1ccccc1.O=C(O)C(=O)O (centres unmarked) | -57.4 |
| COCCNC(=O)Cn1nc(C)c2ccccc2c1=O | 14.9 |
| CCc1ccc([C@@H]2CC=C(C(=O)O)[C@H](c3ccccc3)N2S(=O)(=O)c2ccc(C)cc2)cc1 | 13 |
| NS(=O)(=O)c1ccc(CCNC(=O)c2ccc(C#CC3(O)CCCCC3)cc2)cc1 | 11.5 |
| CC(SC1=Nc2ccccc2C2CC=NN12)C(=O)NC1(C#N)CCCCC1 (centres unmarked) | 8.3 |
| CN1CCN(c2nc(Nc3ccc(O)cc3)nc3ccccc23)CC1.Cl | -1.34 |
| O=C(Nc1cc(-c2ccccc2)nn1-c1ccccc1)c1ccccc1F | 3.96 |
| CCC(C)NC(=O)Cn1cc2c(n1)CCC(C)C2 (centres unmarked) | 16.1 |
